Data reported in patent EP4610277A1 (Daiichi Sankyo Company, Limited, dated 2025).

B1: membrane-type a3DL1-DS2 scFv (scFv)
scFv: DYKDDDDKGSGQVQLQQSGPGLVKPSQTLSLTCAISGDSVSSNSAAWNWIRQSPSRGLEWLGRTYYRSKWYNDYAVSVKSRITINPDTSKNQFSLQLNSMTPEDTAVYYCAREEGVSDAFDVWGQGTLVTVSSGGGGSGGGGSGGGGS[about 100 residues omitted][about 100 residues omitted]
notes: On K562 cells
B2: membrane-type a3DL1-DS5 scFv (scFv)
scFv: DYKDDDDKGSGQVQLQQSGPGLVKPSQTLSLTCAISGDSVSSNSAAWNWIRQSPSRGLEWLGRTYYRSKWYNDYAVSVKSRITINPDTSKNQFSLQLNSVTPEDTAVYYCAREMGWYDWFDPWGQGTLVTVSSGGGGSGGGGSGGGGS[about 100 residues omitted][about 100 residues omitted]
notes: On K562 cells
B3: membrane-type a3DL1-DS3 scFv (scFv)
scFv: DYKDDDDKGSGQVQLQQSGPGLVKPSQTLSLTCAISGDSVSSDSAAWNWIRQSPSRGLEWLGRTYYRSKWYNDYAVSVKSRITINPDTSKNQFSLQLNSVTPEDTAVYYCAREEGVSDAFDVWGQGTLVTVSSGGGGSGGGGSGGGGS[about 100 residues omitted][about 100 residues omitted]
notes: On K562 cells

Target: T1, recombinant human KIR3DS1/CD158e2 Fc chimera protein (4136-KR-050, R&D Systems) (human, UniProt Q14943 22-340, limits assumed)
T1 construct: Bought Fc chimera; also called soluble KIR3DS1; recombinant KIR3DS1
T1 sequence (Q14943 22-340 limits assumed, change not shown): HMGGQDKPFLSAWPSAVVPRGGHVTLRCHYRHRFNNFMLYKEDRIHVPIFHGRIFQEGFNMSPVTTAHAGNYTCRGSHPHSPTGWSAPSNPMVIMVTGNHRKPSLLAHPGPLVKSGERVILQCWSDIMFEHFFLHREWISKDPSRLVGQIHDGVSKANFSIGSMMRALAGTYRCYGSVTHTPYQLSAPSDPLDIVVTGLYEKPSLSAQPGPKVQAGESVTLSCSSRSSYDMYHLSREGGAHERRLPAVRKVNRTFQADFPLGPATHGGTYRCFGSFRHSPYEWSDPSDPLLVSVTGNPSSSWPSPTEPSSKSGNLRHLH
Test: flow cytometry, KIR-Fc on scFv-K562 cells

Binding result, no binding (tested: 0.1 µM):
B1
B2
B3
